From PMC7168936 (Pharmaceuticals, 2020)

Target: T1, PHGDH (Homo sapiens, UniProt O43175)
T1 sequence (O43175 1-533): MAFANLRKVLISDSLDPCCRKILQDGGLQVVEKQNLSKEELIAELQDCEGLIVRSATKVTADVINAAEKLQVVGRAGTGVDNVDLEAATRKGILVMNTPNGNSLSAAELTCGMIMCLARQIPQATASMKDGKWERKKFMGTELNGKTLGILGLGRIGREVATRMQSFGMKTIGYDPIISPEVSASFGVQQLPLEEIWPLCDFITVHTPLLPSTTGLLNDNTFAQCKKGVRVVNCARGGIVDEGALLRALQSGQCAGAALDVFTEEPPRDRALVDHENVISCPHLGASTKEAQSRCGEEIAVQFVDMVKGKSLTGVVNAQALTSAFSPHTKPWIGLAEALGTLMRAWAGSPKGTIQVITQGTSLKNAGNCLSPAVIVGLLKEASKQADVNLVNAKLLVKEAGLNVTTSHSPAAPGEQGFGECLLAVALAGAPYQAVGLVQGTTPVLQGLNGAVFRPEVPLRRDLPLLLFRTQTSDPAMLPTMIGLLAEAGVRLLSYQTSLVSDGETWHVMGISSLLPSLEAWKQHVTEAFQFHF
Assay type: biochemical
Settings: substrates of PHGDH, optimized conditions; read-out: Experimental Km

Structure (SMILES): NC(=O)c1ccc[n+]([C@@H]2O[C@H](COP(=O)([O-])OP(=O)(O)OC[C@H]3O[C@@H](n4cnc5c(N)ncnc54)[C@H](O)[C@@H]3O)[C@@H](O)[C@H]2O)c1 [NAD^+]
- Km: 30.4 ± 4.3 µM
